From paper PMC4336329 (PLoS ONE, 2015)
Hit rate of the full screen: of about 310,000 compounds, about 2,200 (0.71%) showed an effect of 50% or more. The effect is printed as a negative number. The list shows a part of the results.

Biological target: human ether-à-go-go-related gene (hERG) potassium channel (human, UniProt Q12809)
Assay: primary screen, population patch clamp on CHO cells stably expressing hERG

Chain of human ether-à-go-go-related gene (hERG) potassium channel (Q12809 whole entry, looked up): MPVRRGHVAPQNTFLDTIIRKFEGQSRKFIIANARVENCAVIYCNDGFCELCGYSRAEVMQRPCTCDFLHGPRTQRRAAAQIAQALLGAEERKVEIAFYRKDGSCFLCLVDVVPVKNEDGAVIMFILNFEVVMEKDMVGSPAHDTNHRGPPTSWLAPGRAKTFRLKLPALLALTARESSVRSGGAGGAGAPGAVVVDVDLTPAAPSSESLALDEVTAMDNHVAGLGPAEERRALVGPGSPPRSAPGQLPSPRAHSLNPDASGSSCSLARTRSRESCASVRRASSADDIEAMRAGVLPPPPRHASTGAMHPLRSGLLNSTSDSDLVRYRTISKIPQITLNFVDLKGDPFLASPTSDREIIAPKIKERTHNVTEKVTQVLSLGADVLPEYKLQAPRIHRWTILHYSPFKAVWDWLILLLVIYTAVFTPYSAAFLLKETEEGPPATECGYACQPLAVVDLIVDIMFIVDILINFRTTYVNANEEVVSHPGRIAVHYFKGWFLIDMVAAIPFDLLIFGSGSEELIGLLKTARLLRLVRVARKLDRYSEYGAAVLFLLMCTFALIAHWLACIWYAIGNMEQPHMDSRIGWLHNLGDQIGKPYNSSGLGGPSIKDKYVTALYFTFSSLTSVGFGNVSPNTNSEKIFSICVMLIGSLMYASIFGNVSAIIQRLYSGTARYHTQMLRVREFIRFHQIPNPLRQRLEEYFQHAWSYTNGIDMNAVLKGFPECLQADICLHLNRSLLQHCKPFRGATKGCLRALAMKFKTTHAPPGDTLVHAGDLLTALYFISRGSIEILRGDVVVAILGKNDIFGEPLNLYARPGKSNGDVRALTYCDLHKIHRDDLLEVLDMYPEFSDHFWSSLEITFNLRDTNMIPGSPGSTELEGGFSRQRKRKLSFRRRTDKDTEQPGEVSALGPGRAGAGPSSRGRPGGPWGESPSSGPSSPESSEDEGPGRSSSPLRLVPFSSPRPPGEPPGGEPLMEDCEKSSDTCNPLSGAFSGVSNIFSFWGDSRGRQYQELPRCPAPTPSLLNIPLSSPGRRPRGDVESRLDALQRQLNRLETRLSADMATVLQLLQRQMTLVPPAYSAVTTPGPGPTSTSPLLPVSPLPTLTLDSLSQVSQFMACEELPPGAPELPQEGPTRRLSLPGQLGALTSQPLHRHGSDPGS

| SMILES | hERG current change (%, negative = inhibition) at 1uM |
| --- | --- |
| CCOC(=O)/C=C1\CC(=O)Nc2cc(C)c(C)cc2N1 | -4.77% |
| COc1cc(SC)ccc1C(=O)Nc1nc(C)cc(C)n1 | 16.4% |
| CCCC(=O)N(CCN1CCOCC1)c1nc2ccc(OCC)cc2s1.Cl | 5.85% |
| O=C(O)c1ccc(CSc2nc3ccc(NC(=O)c4ccccc4C(=O)O)cc3s2)cc1 | 23.1% |
| CCc1cc(=O)oc2cc(OCC(=O)NCCCn3ccnc3)c(Cl)cc12 | 20.2% |
| O=S(=O)(Nc1ccc(S(=O)(=O)Nc2nccs2)cc1)c1ccc(Br)cc1 | 20% |
| Cc1ccc(C)c(CNS(=O)(=O)c2c(C)[nH]c(C)c2C(=O)N2CCCC2)c1 | -21.1% |
| COC(=O)c1nc(-c2ccccc2)oc1N1CCOCC1 | 13.1% |
| C#CCOCCOCCOCCNc1nc(N2CCN(C(=O)[C@H]([C@@H](C)O)n3cc(CCCC[NH3+])nn3)CC2)nc(N2CCN(C(=O)[C@H](CCCC[NH3+])n3cc(CCC(=O)O)nn3)CC2)n1.[Cl-] | -13.1% |
| CC(C)C(NC(=O)C1CCCCC1)C(=O)NCCc1ccccc1 (stereo not drawn) | 8.49% |
| CCOc1ccc(C(=O)CCc2nc3ccccc3s2)cc1 | -4.55% |
| C=CCN(C(=O)Nc1ccc(Cl)cc1)C1CC(=O)N(c2ccc(OC)cc2)C1=O (stereo not drawn) | 4.12% |
| CC(C)(C)NC(=O)C1Cc2ccccc2CN1S(=O)(=O)c1ccc(F)cc1 (stereo not drawn) | 3.91% |
| COCCOC(=O)C1=C(C)NC(=O)NC1c1cn(-c2ccccc2)nc1-c1cccs1 (stereo not drawn) | -2.46% |
| CN1C(=O)[C@H]2[C@@H](C3CC3)N3C(=O)CN(Cc4ccc(-c5ccccc5)cc4)C(=O)[C@@]3(C)[C@H]2C1=O | -13% |
| CCOC(=O)N1CCN(C(=O)CCCCn2c(=S)[nH]c3ccsc3c2=O)CC1 | 5.21% |
| Cc1ccc(C(=O)O/N=C/c2c(N3CCOCC3)n(C)c3ccccc23)cc1 | 3.23% |
| CCN(Cc1ccccc1)C(=O)c1cc2c(=O)oc3ccc(C)cc3c2s1 | 8.04% |
| COc1ccc(Br)cc1CN(C)CC(O)COc1ccc(Br)cc1 (stereo not drawn) | -4.15% |
| O=C(NNc1cc(Cl)cc(Cl)c1)c1c(F)cccc1Cl | 10.2% |
| CN1CCN(CC(=O)Nc2ccccc2C(F)(F)F)CC1.O=C(O)C(=O)O | 12.9% |

| SMILES | hERG current change (%, negative = inhibition) at 1uM |
| --- | --- |
| CCCc1nc2sc3c(SCC(=O)NCc4ccco4)ncnc3c2c2c1CCC2 | 5.4% |
| O=C(Nc1ccccc1N1CCCC1)c1ccc(Cl)cc1Cl | 4.5% |
| Cc1ccc(NC(=O)COc2ccc3oc4c(c3c2)CCCC4)nc1 | 2.88% |
| Cl.OC(C#CCN1CCOCC1)(c1ccccc1)C1CC1 (stereo not drawn) | 21% |
| COc1ccc(C(=O)/C=C/Nc2ccc(S(N)(=O)=O)cc2)cc1OC | 14.9% |
| CC#CCN1c2ccccc2[C@]23C[C@@H](C(=O)OC)N(C(=O)NCCBr)C2=NC(C(=O)OC)=C(C(=O)OC)[C@H]13 | 17.9% |
| CCC(=O)N(C)CCc1cc2c(c(OC)c1/C=N/NC(=O)[C@H]1C[C@@H]1c1ccccc1)OCO2 | 11.5% |
| CCOC(=O)c1ccc(NC(=O)CSc2nnc(CNC(=O)c3ccccc3F)o2)cc1 | 7.32% |
| COc1ccc(-c2nc3ccccc3nc2-c2ccc(OC)cc2)cc1 | 8.2% |
| COC(=O)c1ccc(N2CCCCC2)c(NC(=O)c2ccco2)c1 | -0.798% |
| COC(=O)c1cc(OC(=O)CCc2ccc(OC)c(OC)c2)cc(C(=O)OC)c1 | 14.9% |
| CC1CCCCC1NC(=S)NC(=O)c1ccccc1Br (stereo not drawn) | 3.64% |
| O=C(NCCc1ccc(Cl)cc1)C1CCN(S(=O)(=O)c2cccc3nonc23)CC1 | 0.171% |
| Cc1nc(N2CCC(C)CC2)c2c(C)c(C(=O)Nc3ccc(C(F)(F)F)cc3)sc2n1 | 15.6% |
| CC(=O)c1ccc2c3c(cccc13)CC2 | 10.2% |
| Cc1ccc(S(=O)(=O)c2nc(-c3cccs3)oc2SCC(N)=O)cc1 | 14.4% |
| O=S(=O)(c1cccs1)N1CCN(c2ncccn2)CC1 | -13.2% |
| Cc1ccc(NC(=O)CNS(=O)(=O)c2ccc(F)cc2)cc1C | 12.6% |
| O=C(NCc1cccc(Cl)c1)c1cccc(C(F)(F)F)c1 | 17.2% |
| CCOCCCNC(=O)CCn1ccc2cc(S(=O)(=O)N3CCCC3)ccc21 | 16.5% |
| CC(/C=C/c1ccccc1)=N\NC(=O)Cn1cncn1 | 12.6% |

| SMILES | hERG current change (%, negative = inhibition) at 1uM |
| --- | --- |
| CCOC(=O)Cc1nnc(NC(=O)CC)s1 | 3.85% |
| Br.C=CCn1c(=N)n(CC(=O)O)c2ccccc21 | 10.3% |
| O=CC1=C(c2ccccc2)Oc2ccccc2O1 | 13.3% |
| CCOC(=O)C1(Cc2cccc(OC)c2)CCCN(Cc2nccn2CC)C1 (stereo not drawn) | -13.5% |
| O=[N+]([O-])c1ccc(N2CCN(CCO)CC2)c2ncccc12 | -3.63% |
| Cc1cc(C(=O)NCCCN2CCOCC2)n(-c2ccccc2)n1 | 17.4% |
| O=C(COC(=O)/C=C/c1cccc(Cl)c1)Nc1cccc(S(=O)(=O)NC2=NCCC2)c1 | -3.89% |
| C/C(=N/NC(=O)c1cccs1)c1c(C)[nH]n(-c2nc3ccccc3s2)c1=O | -1.9% |
| CN(C)CCn1ccc(O)c(Cc2ccc(Cl)cc2)c1=O | 10.3% |
| COc1ccc2c(c1OC)C(=O)OC2Nc1ccc(S(=O)(=O)N=C(N)N)cc1 (stereo not drawn) | 16.8% |
| CCOC(=O)C1=C(c2ccccc2)N(C)C(=O)NC1c1ccc(OC(F)F)c(OC)c1 (stereo not drawn) | 17% |
| CCCCC(=O)NS(=O)(=O)c1ccc(N=NN2CCCCC2)cc1 | 6.95% |
| OCCN1CCN(Cc2cc(Br)cc(Br)c2O)CC1 | -22.2% |
| COc1ccccc1C(=O)Nc1nc2ccccc2[nH]1 | 10.9% |
| COc1ccc(/C(C)=N/NC(=O)CNC(=O)c2ccncc2)cc1 | 7.95% |
| Cc1ccc2nc(NC(=O)C3CCN(C(=O)c4ccc(F)cc4)CC3)sc2c1 | -8.44% |
| Cl.Clc1ccc2nsnc2c1NC1=NCCN1 | 1.83% |
| CNC(=S)Nc1cc2oc3ccccc3c2cc1OC | 20.5% |
| COc1cccc(CN(C)C(=O)CCN(c2ccccc2)S(=O)(=O)c2ccc(C)cc2)c1OC | 2.71% |
| COc1ccc(-c2nc(CSCC(=O)NCCC3=CCCCC3)c(C)o2)cc1OC | -2.02% |
| COc1ccc(OC)c(C2=NOC(C(=O)Nc3c(C)n(C)n(-c4ccccc4)c3=O)C2)c1 (stereo not drawn) | 14.2% |

| SMILES | hERG current change (%, negative = inhibition) at 1uM |
| --- | --- |
| Cc1ccc(NC(=O)C2CCN(S(=O)(=O)c3ccc4c(c3)NC(=O)CO4)CC2)cc1C | -9.52% |
| CCOc1cc(NC(=S)NC)c(OCC)cc1NC(=O)c1cccs1 | -5.42% |
| CCOC(=O)c1sc(-c2ccc(OC)cc2)cc1N | -4.37% |
| Cc1ccc(-c2nnc(C)c(N3CCOCC3)n2)cc1 | 7.09% |
| O=C(COC(=O)c1ccc(F)cc1)NC1CC1 | 12.5% |
| O=C1C(Cc2ccccc2)NC(=S)N1Cc1ccccc1 (stereo not drawn) | 13.6% |
| C/C(=C\c1ccc2c(c1)OCO2)C1Nc2cccc3cccc(c23)N1 | 11.2% |
| COc1ccccc1NS(=O)(=O)c1ccc(N/N=C/c2c(C)nn(-c3ccccc3)c2N2CCCC2)c([N+](=O)[O-])c1 | -1.38% |
| Cc1ccc(NC(=O)c2cccc(F)c2)cc1S(=O)(=O)N1CCCCCC1 | 11.7% |
| Cc1cc(NC(=O)c2cc(-c3ccco3)on2)no1 | -0.508% |
| COc1ccc(C(=O)C2CCCN(C(=O)c3csc(C(C)=O)c3)C2)c(C)c1 (stereo not drawn) | 10.1% |
| COc1ccc(S(=O)(=O)n2cccc2)cc1 | 16.6% |
| Cc1ccc(-c2noc(CCC(=O)NCCc3ccccc3Cl)n2)cc1 | 13.1% |
| C[C@@H]1CC=C[C@H]2[C@H]1C(=O)N(Cc1ccccc1)[C@H]2c1ccc(C(F)(F)F)cc1 | 15.5% |
| COC(=O)[C@@H]1CC[C@H](C)[C@@H](c2ccc(C)cc2)N1C(=O)c1ccc(/C=N/OCC[C@@H]2C=C[C@H](OC(C)=O)[C@@H](COC(C)=O)O2)cc1 | 11.3% |
| COc1ccc(NC(=O)C2CCCN(C(=O)c3ccc(Cl)cc3)C2)cc1S(=O)(=O)N(C)C (stereo not drawn) | 0.0339% |
| CCCCN1C(=O)NC(NC(=O)c2ccco2)(C(F)(F)F)C1=O (stereo not drawn) | 3.23% |
| COc1ccc(NC(=O)CS(=O)(=O)Cc2nc(-c3ccc(C)cc3)oc2C)cc1 | -2.62% |
| CC(C)(C)C1CCC(=NNC(=O)c2cc(-c3ccccc3)n[nH]2)CC1 (stereo not drawn) | 10.2% |
| Cc1cc(F)ccc1NC(=O)C(C)n1c2ccccc2c2nc(=O)cc(C)n21 (stereo not drawn) | 8.53% |
| O=C(O)c1ccc(Cl)c(S(=O)(=O)NC(Cc2c[nH]c3ccccc23)C(=O)O)c1 (stereo not drawn) | 9.88% |
